Test results taken from the supplement of paper PMC9334596.
Where “and” joins values, the source holds several entries; their conditions need not be identical. Equal entries are not always repeated. Whole data set: some 5,300 compounds, median “PER2::LUC luminescence relative to vehicle control” near 0.96, cut for the highest 2% near 1.3. The list shows a part of the results.

Tested on: mPer2Luc MEF
Assay: PER2::LUC luminescence relative to vehicle control (fold of vehicle); higher = higher PER2::LUC reporter signal
Conditions: 10 µM
Method in brief: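 The value is PER2::LUC luminescence expressed as fold of vehicle control. Mouse embryonic fibroblasts carrying the mPer2Luc reporter were seeded at ~3000 cells per well in 384-well plates and grown in DMEM with 10% FBS at 37 °C and 5% CO2. Compounds from commercial libraries were added at 10 μM 48 h after seeding, and luminescence was read with the ONE-Glo luciferase assay system 24 h and 30 h after treatment, followed by an alamarBlue viability assay.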

| SMILES | PER2::LUC luminescence (time after treatment 24 h) | PER2::LUC luminescence (time after treatment 30 h) |
| --- | --- | --- |
| N#CCC(C1CCCC1)n1cc(-c2ncnc3[nH]ccc23)cn1 (stereo not given) | 1.26 | 1.51 |
| N[C@H](C(=O)O)[C@H](O)C(=O)O | 0.998 | 0.825 |
| CN(C)CCCSc1ccccc1NC(=O)/C=C/c1ccccc1 | 1.01 | 0.871 |
| O=C(O)CN(CCOCCOCCN(CC(=O)O)CC(=O)O)CC(=O)O | 0.947 | 0.933 |
| CNC(=C[N+](=O)[O-])NCCSCc1ccc(CN(C)C)o1 | 0.953 and 1.09 | 1.01 and 1.09 |
| C=CCc1ccc(O)c(-c2ccc(O)c(CC=C)c2)c1 | 1.12 | 1.04 |
| CC(C)C[C@H](NC(=O)[C@@H](O)[C@H](N)Cc1ccccc1)C(=O)O | 1.12 and 0.518 | 1.01 and 1.14 and 0.974 |
| COC(=O)[C@H]1[C@H]2C[C@@H]3c4[nH]c5cc(OC)ccc5c4CCN3C[C@H]2C[C@@H](OC(=O)c2cc(OC)c(OC)c(OC)c2)[C@@H]1OC | 0.745 | 0.806 |
| COc1cc2c(cc1OC)-c1cc3ccc(OC)c(OC)c3c[n+]1CC2 | 1.01 and 1.03 | 0.946 and 0.923 |
| C[C@H](NC(=O)Cc1cc(F)cc(F)c1)C(=O)N[C@@H]1C(=O)N(C)c2ccccc2-c2ccccc21 | 0.982 | 0.869 |
| Cc1cc(N2CCOCC2)ccc1Nc1nc(NC2CCCCC2)c2[nH]cnc2n1 | 0.759 | 0.708 |
| O=C(O)c1ccc(Nc2ncc3c(n2)-c2ccc(Cl)cc2C(c2c(F)cccc2F)=NC3)cc1 | 0.91 | 0.904 |
| Nc1c2c(nc3c1CCC3)CCCC2 | 0.989 | 0.887 |
| OCc1ccc(-c2ccc(-c3ccc(CO)s3)o2)s1 | 1.48 | 1.62 |
| N[C@H](Cc1ccccc1)C(=O)O | 0.973 | 0.973 |
| O=c1c(-c2ccc(O)cc2)coc2cc(O)cc(O)c12 | 1.07 | 1.06 |
| CCCc1nc(C)c2c(O)nc(-c3cc(S(=O)(=O)N4CCN(CC)CC4)ccc3OCC)nn12 | 0.872 | 0.86 |
| O=C(NOCCO)c1cc(CN2OCCCC2=O)c(F)c(F)c1Nc1ccc(I)cc1F | 0.301 | 0.24 |
| O=C1C=CC(=C(c2ccc(O)cc2)c2ccc(O)cc2)C=C1 | 0.697 | 0.767 |
| CCN(CC)CCNC(=O)c1ccc(NC(C)=O)cc1 | 0.955 and 1 and 1.18 | 1.05 and 0.966 and 1.11 |
| CCCCCCN(CCCCCC)C(=O)Cc1c(-c2ccc(F)cc2)[nH]c2ccccc12 | 0.972 and 0.993 | 0.97 and 0.924 |
| CCOc1ccn(-c2ccc(F)cc2)c(=O)c1C(=O)Nc1ccc(Oc2ccnc(N)c2Cl)c(F)c1 | 1.11 | 1.11 |
| CCC(=O)NS(=O)(=O)c1ccc(-c2c(-c3ccccc3)noc2C)cc1 | 1.17 | 1.12 |
| CCn1cc(-c2ccnc3[nH]c(-c4cccc(CN(C)C)c4)cc23)c(-c2ccc(NC(=O)N(C)C)cc2)n1 | 0.071 | 0.065 |
| CN1C(=O)CC(C)(c2ccccc2)C1=O (stereo not given) | 1.16 | 0.963 |
| CNC[C@H](O)c1cccc(O)c1 | 1.08 | 1.03 |
| N[C@@H]1CN(c2c(F)cc3c(=O)c(C(=O)O)cn([C@@H]4C[C@@H]4F)c3c2Cl)CC12CC2 | 0.976 and 1.07 | 0.96 and 1.12 |
| CC(=O)NNC(=O)N1Cc2ccccc2Oc2ccc(Cl)cc21 | 0.984 | 0.784 |

| SMILES | PER2::LUC luminescence (time after treatment 24 h) | PER2::LUC luminescence (time after treatment 30 h) |
| --- | --- | --- |
| CC[C@H](CC[C@@H](C)[C@H]1CC[C@H]2[C@@H]3CC=C4C[C@@H](OC(C)=O)CC[C@]4(C)[C@H]3CC[C@]12C)C(C)C | 1.04 | 1.02 |
| C[C@]12CC[C@@H](O)C[C@H]1CCc1ccccc12 | 1.02 | 1.05 |
| CCOC(=O)[C@H](CCc1ccccc1)N[C@@H](C)C(=O)N1[C@H](C(=O)O)C[C@H]2CCCC[C@@H]21 | 0.86 | 0.871 |
| O=C(O[C@@H]1Cc2c(O)cc(O)cc2O[C@@H]1c1cc(O)c(O)c(O)c1)c1cc(O)c(O)c(O)c1 | 1.05 and 0.765 and 0.506 | 0.993 and 0.606 and 0.619 |
| CC(C)(CO)[C@@H](O)C(=O)NCCCO | 1.06 | 1.07 |
| COC(=O)c1ccc2c(c1)NC(=O)/C2=C(\Nc1ccc(N(C)C(=O)CN2CCN(C)CC2)cc1)c1ccccc1 | 0.601 | 0.442 |
| CCOc1ccc(C(Nc2ccccn2)c2ccc3ccc(C)nc3c2O)cc1C (stereo not given) | 1.13 | 1.13 |
| N#C[C@@H]1CCCN1C(=O)CNC12CC3CC(CC(O)(C3)C1)C2 | 0.9 | 0.842 |
| CC(C(=O)O)[C@H]1CCC2C3CC=C4C[C@@H](O)CC[C@]4(C)C3CC[C@@]21C (stereo not given in full) | 1.07 | 1.11 |
| COc1ccc(/C=C\c2cc(OC)c(OC)c(OC)c2)cc1OP(=O)(O)O | 0.41 | 0.469 |
| CC(C)(O/N=C(\C(=O)N[C@@H]1C(=O)N2C(C(=O)[O-])=C(C[n+]3ccccc3)CS[C@H]12)c1csc(N)n1)C(=O)O | 1 | 0.713 |
| C=C1/C(=C\C=C2/CCC[C@]3(C)[C@@H]([C@H](C)CCCC(C)(C)O)CC[C@@H]23)C[C@@H](O)C[C@@H]1O | 0.887 and 1.18 | 0.86 and 1.07 |
| C[C@@H](O)[C@H](N)C(=O)O | 1.05 | 1.06 |
| C#CCN(Cc1cc2c(=O)n(C)c(CN3CCN(C)CC3)nc2cc1Cl)c1ccc(C(=O)NCc2cccnc2)cc1 | 0.621 | 0.565 |
| Cc1ccc(/C(=C\CN2CCCC2)c2ccccn2)cc1 | 0.723 | 1.09 |
| O=c1onc2n1-c1cc(Br)ccc1OC2 | 0.823 | 0.963 |
| CCOC(=O)NCCCC(=O)NCCc1ccccc1 | 1.03 | 1.04 |
| COC(=O)c1ccc2c(c1)[nH]c1ncnc(NCCCN3CCCCC3)c12 | 0.888 | 0.899 |
| C[C@H]1[C@H](NC(=O)/C(=N\OC(C)(C)C(=O)O)c2csc(N)n2)C(=O)N1S(=O)(=O)O | 1.07 | 0.993 |
| CC1=C(/C=C/C(C)=C/C=C/C(C)=C/C(=O)O)C(C)(C)CCC1O (stereo not given) | 0.928 | 1.06 |
| CC(C)=CCC/C(C)=C/CNCCNC1C2CC3CC(C2)CC1C3 (stereo not given) | 0.743 | 0.748 |
| CNCCC=C1c2ccccc2CCc2ccccc21 | 0.572 | 0.594 |
| COc1cc(CNC(=O)CCCC/C=C\C(C)C)ccc1O | 1.1 | 1.03 |
| OC[C@H]1O[C@@H](OCCc2ccc(O)cc2)[C@H](O)[C@@H](O)[C@@H]1O | 1.01 | 0.94 |
| FC(F)(F)c1ccc(Nc2nc(-c3c(C(F)(F)F)nc4ccccn34)cs2)cc1 | 0.269 | 0.305 |
| Cc1ccc2c(c1)CC[C@H]1CC(=O)CC[C@]21C | 0.91 | 0.932 |
| C=CCN1CCc2c(cc(O)c(O)c2Cl)C(c2ccccc2)C1 (racemic) | 0.968 and 0.798 | 0.931 and 0.743 |
